# Test results published in the supplement of paper PMC3334620.
# In all, about 33,000 sequences were measured (“E-score (-0.5 to 0.5)”: median about -0.012, highest 2% from about 0.29 on). Some of the results follow.
# Molecular target: T1, Ybr033w (UniProt P38073)
# T1 sequence: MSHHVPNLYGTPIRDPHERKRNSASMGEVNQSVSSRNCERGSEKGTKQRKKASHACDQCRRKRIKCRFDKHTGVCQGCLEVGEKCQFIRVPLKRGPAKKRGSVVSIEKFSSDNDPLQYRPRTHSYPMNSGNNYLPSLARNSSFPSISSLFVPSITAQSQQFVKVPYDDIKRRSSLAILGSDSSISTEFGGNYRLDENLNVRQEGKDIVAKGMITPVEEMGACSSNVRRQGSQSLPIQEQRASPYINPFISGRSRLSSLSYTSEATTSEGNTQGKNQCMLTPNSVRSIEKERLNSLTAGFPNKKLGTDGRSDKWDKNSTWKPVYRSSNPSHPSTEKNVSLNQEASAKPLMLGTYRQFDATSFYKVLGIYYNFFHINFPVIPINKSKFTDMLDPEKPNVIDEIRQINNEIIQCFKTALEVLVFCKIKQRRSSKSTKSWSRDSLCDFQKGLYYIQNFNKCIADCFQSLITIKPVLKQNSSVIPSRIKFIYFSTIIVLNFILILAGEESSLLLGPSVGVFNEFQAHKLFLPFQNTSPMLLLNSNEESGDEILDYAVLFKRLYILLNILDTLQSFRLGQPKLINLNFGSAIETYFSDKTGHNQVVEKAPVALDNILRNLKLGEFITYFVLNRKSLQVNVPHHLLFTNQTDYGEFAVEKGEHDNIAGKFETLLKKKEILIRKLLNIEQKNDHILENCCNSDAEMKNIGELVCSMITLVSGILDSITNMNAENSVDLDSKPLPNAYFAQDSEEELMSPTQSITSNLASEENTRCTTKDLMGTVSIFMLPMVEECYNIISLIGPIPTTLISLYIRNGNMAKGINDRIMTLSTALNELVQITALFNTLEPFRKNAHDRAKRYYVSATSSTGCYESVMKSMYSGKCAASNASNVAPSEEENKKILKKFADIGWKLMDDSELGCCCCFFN
# Experiment: PBM E-score (8-mer binding enrichment) (E-score (-0.5 to 0.5)); higher = stronger / more preferred TF binding; most listed sequences are background and not binding sites
# Conditions: protein concentration: 200 nM; construct: GST-full length
# In short: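 Detection of bound protein used fluorescent anti-GST, with scans normalised by masliner. The proteins were GST-tagged yeast transcription factors applied at about 100-200 nM to universal all-10-mer Agilent arrays made double-stranded by primer extension. Each ungapped eight-base word, pooled with its reverse complement, was scored with an E-score from the Universal PBM Analysis Suite.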
row,Sequence,PBM E-score
1,AAAAACCA,0.259
2,CATGTGAG,-0.328
3,GCGATAAC,-0.00105
4,AAAGACAT,-0.058
5,TACAAATA,0.192
6,ATACGTCG,0.0204
7,CGACCATA,0.0381
8,AGCCCGCT,-0.271
9,AGACTGAG,0.00821
10,GGTATTAA,0.166
11,AGGGGCAT,-0.204
12,AAAGTTAC,0.224
13,CATTTGTA,0.267
14,CGGACCAC,0.0108
15,CGAACTAA,0.0954
16,ACGGACTG,-0.194
17,CGCCTGCA,-0.397
18,ACGGTCAA,0.162
19,CCGATTCG,0.149
20,CCTGGGAA,0.00617
21,ATAACCCG,-0.00026
22,AACGATAA,0.115

row,Sequence,PBM E-score
1,CATTACGA,0.0351
2,AAAGGATC,0.0664
3,CGTCATCC,-0.0466
4,CCTGATCA,-0.0707
5,AGGACGTC,-0.175
6,AGCAGAGC,-0.0843
7,AGCATCTC,-0.0481
8,CCTCTAAA,-0.0537
9,ATAAAGGG,-0.176
10,GCCTTGCA,-0.121
11,ACAATGCC,-0.0228
12,GCACAAAA,0.218
13,GACTGTAC,-0.349
14,CTCGCAAA,-0.0546
15,GTCCCTAA,-0.144
16,CACCATCG,-0.291
17,ACCCTCTC,-0.211
18,GTTTAGGA,-0.129
19,ATTGGCGA,-0.0862
20,CTTGGATA,0.0816
21,ACCAGTAG,0.137
22,AAGGGTCT,-0.178

row,Sequence,PBM E-score
1,AATCACCT,0.163
2,AGAGCGGA,-0.0345
3,ATCTCATC,0.0762
4,AGCCTCAT,-0.273
5,AAGGACTT,-0.203
6,CATGGTTA,0.156
7,AAACTCTC,0.155
8,CGAACCCA,-0.118
9,AGTGTGAG,-0.0322
10,CTGTACGA,0.0823
11,CGCCACCG,-0.177
12,CAAATCCA,0.0838
13,CGACAATA,0.126
14,AGATTGCC,-0.0485
15,CATCCGTC,0.0296
16,GTGATACA,0.0685
17,TCGCATAA,0.21
18,ATTAGCCC,-0.0626
19,ATGCCTGA,-0.0152
20,GTCCTTCA,-0.0408
21,CTCCCAAG,-0.115
22,AATACAGT,0.016

row,Sequence,PBM E-score
1,GACCTGCA,-0.148
2,ACATACAA,0.161
3,AAAGGGTT,-0.134
4,CGAACGTC,-0.122
5,AAGTTTAA,0.139
6,CTCACGTA,-0.101
7,CACTCGGG,-0.0754
8,CCCCAGCG,-0.299
9,TACCCCAA,-0.15
10,AAACCCTG,-0.0096
11,CATACAAA,0.246
12,AACGAGAC,-0.0496
13,AAAATTAG,0.179
14,AGGTGCTG,0.0932
15,ATTGCGCG,-0.123
16,ATCATTTA,0.336
17,GGAAGCAA,-0.0265
18,GACACGGC,-0.213
19,CATAAGGC,0.0225
20,AAAGATAT,0.232
